# Variants at the background level are over-represented here.
# B1: TPR 5TU (parent)
# chain: GGAUCUUCUCGAUCUAACAAAAAAGACAAAUCUGCCACAAAGCUUGAGAGCAUCUUCGGAUGCAGAGGCGGCAGCCUUCGGUGGCGCGAUAGCGCCAACGUUCUCAACUAUGACACGCAAAACGCGUGCUCCGUUGAAUGGAGUUUAUCAUG
# Variants of: B1
# Experiment: polymerase ribozyme fitness, log enrichment relative to wild type (log ratio); higher = more active; in vitro selection for triplet polymerase activity
# Summary of the method: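 Fitness compares each genotype's enrichment to that of the wild type on a logarithmic scale, averaging replicates with inverse-variance weights. The logarithm is base 2. Enrichment came from Illumina sequencing of input and output libraries after one triplicate round of in vitro selection, which included frozen incubation at −7 °C, of PCR-built, transcribed mutant libraries of each subunit of a heterodimeric triplet polymerase ribozyme. Only genotypes with ≥10 input reads and ≥1 read per output were kept.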
row,Variant,polymerase ribozyme fitness (log ratio)
1,C54A A60U C79G G83A C99A C129G A138C,≤ -4.2
2,C54U C76A C79U G84A U102G U148A U151C,≤ -4.2
3,U53G G71A A110G,≤ -4.2
4,U55A U56C G58A G92C A119U U145G,-2.87
5,C54U G62C C72G U134C,≤ -4.2
6,C54U C72U C93G C103A C114G,≤ -4.2
7,C54U U146A,-0.881
8,C54U U146G,-0.826
9,C54U C79U G92U C95U G141C,-3.77
10,U55A A60U G84U C116G A119U,-2.63
11,U55A U56A A106C,-1.06
12,C54U C96A C105U,0.0167
13,U53A G68U C76G U130A C132U G136A A142U,≤ -4.2
14,C54A G88U,≤ -4.2
15,C54U G86U A138G A142C U148G,≤ -4.2
16,U53A C85U,-1.4
17,C54U U55A C85G A91G G152U,≤ -4.2
18,U53G A110G G117A U148A,≤ -4.2
19,U53G C118U,-1.68
20,C54A G58C,-1.45
21,U53G U77G C129A A147C,≤ -4.2
22,C54U G86U U102C G143U,≤ -4.2
23,C54A G94U G140A,≤ -4.2
24,U53A A110G U145A,≤ -4.2

row,Variant,polymerase ribozyme fitness (log ratio)
1,C54U G83A G84C A91C,≤ -4.2
2,U53A C103A A137G,≤ -4.2
3,U55A G68A A73C C95G,≤ -4.2
4,A52U U61G A91G C96A G117C,-3.76
5,C54U C96U A115C U127C U144C,≤ -4.2
6,C54U G71C A107C C108U,≤ -4.2
7,U53A G133A U135C G136U A147C,≤ -4.2
8,U55A G84U,-2.28
9,C54U C76G C87A C93G C108U U134G,≤ -4.2
10,C54G C75U C95U A147C,-3.31
11,U55A G59C G94U A107C,≤ -4.2
12,C54U A150G,-0.995
13,U53G C79G C87A A89G,≤ -4.2
14,U55A C85A A119U U134A A142C,≤ -4.2
15,A52U U139G U144C,-1.12
16,U53G A60C U61A G74C U78G G92U A98U A106G,≤ -4.2
17,U53G C54G,≤ -4.2
18,U53A U56G G71U G140U,≤ -4.2
19,C54A U148C,-3.69
20,C54U G65C C93A C96G,≤ -4.2
21,C54G U101G C118U,-2.4
22,U53G U55A A60U C75G G94C,≤ -4.2
23,C54U U61G C87A A115U A122C,≤ -4.2
24,C54U C95A G126U U148A,≤ -4.2

row,Variant,polymerase ribozyme fitness (log ratio)
1,C54U C114A A137U,-3.59
2,C54A G81A C87U C96A,≤ -4.2
3,U53G G58A U82A A115U C116A,≤ -4.2
4,C54G A64C C93G U104A G141A U144G,≤ -4.2
5,U53A C54A A91U,≤ -4.2
6,C54A G74A G86C U102G A115C G126C,≤ -4.2
7,U55A G84U A98C A110U U145A,≤ -4.2
8,C54A G94A A138U U145G,≤ -4.2
9,U53A G88C,≤ -4.2
10,C54A U127C,-2.28
11,U53A U148G,-4.01
12,U55A C85U A122G A142G U145G,-2.39
13,C54G U78G C87A G140A,≤ -4.2
14,C54U G58C C87G A89U C116U U148G,≤ -4.2
15,C54A C99U,-1.85
16,C54U C76G G84U U101C,≤ -4.2
17,C54U U56A C93A G100U,≤ -4.2
18,C54A A150G,-3.37
19,U55A C57U G84A G141C,-0.559
20,U55A G100A,≤ -4.2
21,C54A C76U G88C U135A A138C,≤ -4.2
22,U53A A150C,-3.56
23,U53A G58C A150U,0.575
24,C54A G58C A91U C95G A142U,≤ -4.2

row,Variant,polymerase ribozyme fitness (log ratio)
1,U53G C79U A89U,≤ -4.2
2,C54U A106G,-0.0717
3,U53C G58A G62C C85G,≤ -4.2
4,U55A C69A U77C A89G,≤ -4.2
5,U53A G67U C93A,≤ -4.2
6,U55A C118G U134G,≤ -4.2
7,U55A A91C A97U A106U,≤ -4.2
8,U55A C96A A98C U139G C149A,≤ -4.2
9,C54A G65U G88U U135A U145A,≤ -4.2
10,C54U U55A U77G A91U A137C,≤ -4.2
11,U55A A60G,0.676
12,A52U U55A G67A U104G,≤ -4.2
13,U55C C76G G92A C114G A115U,≤ -4.2
14,U53A C76G,≤ -4.2
15,C54A G136A,-0.852
16,U53A C93U U130G,≤ -4.2
17,C54G C95A,-1.74
18,U55A U56A C93U A138G,≤ -4.2
19,U55A G84A A119C G133U G143A,-4.03
20,C54U C69A U144C,-3.89
21,U55A C75G U77G A107U,≤ -4.2
22,U53A G143C,-2.05
23,C54G A60C G83A A107U C116A G117A G126A U139A,≤ -4.2
24,C54A C125U,-3.73

row,Variant,polymerase ribozyme fitness (log ratio)
1,C54G C63U C69G A89U C93A G117A A120C G124C,≤ -4.2
2,C54G A91C U139A,≤ -4.2
3,U55A A97U,-0.916
4,U53A C75G C103A G136U U144C,≤ -4.2
5,U53A G80U C96A G143A U146C C149G,≤ -4.2
6,U53A G62A C76U C85G U111G,≤ -4.2
7,C54U C76U C87A A107G,≤ -4.2
8,U55A C57A G81A G92A U104C U134G G141C,≤ -4.2
9,U55A C93U G133U,≤ -4.2
10,U55A G94A A97U A107G G124U U134A U135G U139G G140C,≤ -4.2
11,C54A G58A G65C A91C U139G,≤ -4.2
12,U55A U78C C123G,-0.403
13,U53A C54U G70U G86U,≤ -4.2
14,U55A C93G G141C,-3.82
15,C54A C79A C87U U144C A150G U151A,≤ -4.2
16,U53A G58A C69G G88C A106U A122G,≤ -4.2
17,C54U C69U G80A U82G G83U,≤ -4.2
18,U53A G71A A113G,≤ -4.2
19,U55A A138U,-3.9
20,C54U A89U C95G C99A,≤ -4.2
21,U55A U78G G84U C87G C118U,≤ -4.2
22,U55A A73C C99U A106C,≤ -4.2
23,C54G G70A A91C U111C,≤ -4.2
24,A52U G81U C132U G143A,≤ -4.2

row,Variant,polymerase ribozyme fitness (log ratio)
1,U55A C85U U148A,≤ -4.2
2,U53A G58C A73U C95A,≤ -4.2
3,U55A G140U,-2.9
4,C54A G88U C93U,≤ -4.2
5,U53A U55A G83U C123A G128U A147U,≤ -4.2
6,C54U A91U G126A U146G,≤ -4.2
7,U55A U82G G83A C99U C103A,≤ -4.2
8,U53A U55A U102G U111A C129U,≤ -4.2
9,U53A U56A C85U G92C A98C C123U G124U G126C A142U,≤ -4.2
10,U53A C54A G58A C85U,-0.519
11,U53A G68C C85U G92U A119C,≤ -4.2
12,U53A U56C G141U,-0.733
13,U53A C125A G141C,≤ -4.2
14,C54U G65A C85U A89G U146G,-4.13
15,C54U U55G U82G,-1.38
16,U55A C96U A113C A142G U144G C149A,≤ -4.2
17,U55A A66U G74A C75A C79G G88C C95G A137U,≤ -4.2
18,C54A A91G C93U U144A C149G U151G,≤ -4.2
19,C54U C87G,≤ -4.2
20,U55A U61A C79A G83A U90G G143A,≤ -4.2
21,U53A G71U G86A G88A A89G U90C,≤ -4.2
22,C54U U130G,-3.73
23,U55A U144G,0.364
24,U53C A97U G136A C149G,≤ -4.2

row,Variant,polymerase ribozyme fitness (log ratio)
1,C54G G68C G80A G94U A98G,≤ -4.2
2,U53A A106U,-1.9
3,C54G C96U,-1.33
4,C54A C87U,-3.48
5,C54U C149U,-0.259
6,U53A U56A C93U G133C G140U U148A,≤ -4.2
7,C54A G92A A110U C116U G133C,≤ -4.2
8,C54G A97U A106C,-2.99
9,U53A C96U C103U,-1.14
10,U55A C63G A121U,-0.282
11,C54G U55G,≤ -4.2
12,U53A G136A A137U U145C,≤ -4.2
13,U53A A89U,-0.481
14,C54U G62C C69U U82G C96U U102G U139G,≤ -4.2
15,C54G U55A G67A C76G G86C,≤ -4.2
16,U53G A60G C87A,≤ -4.2
17,C54U C93U,-1.99
18,C54G U90G C95G A110G C118U,≤ -4.2
19,U53A C79G G83A G100A A121C,≤ -4.2
20,C54G C85U C96G G112C U130A A142G C149A,≤ -4.2
21,U55A C63U C85U C103A A138U U139A,≤ -4.2
22,U53A G65U G83C C103U A110G U111G G126A,≤ -4.2
23,U53A A60U U61A C69G C96U,-3.74
